# The full ranking holds about 4,500 sequences; the median of “median log2 fold change of GCK-ALFA target abundance (FLAG IP / Myc IP barcode read proportion)” is about 0.078, and the lowest 2% start at about -0.6. The list shows a part of the results.
# B1: GBRAP_128_3443 (protein)
# chain: SQEELLEKAKELLDKIVESDVEEAKKLTKELAEVLKELDEEGRDEVLEYFEEKAKELSEEKLEAVADALREEIPKADPLTANYLAGMIVIAGERILELEE
# B2: GBRAP_78_6688 (protein)
# chain: EIEELLDKAIEHLGKAAKILAKMNTEEALDLLGKVIDAASLIEEALLGETKLETLEEARKLLEEVIKELEKIDTEEAKEAKKHVEEALKHVEEAIKLLKK
# B3: GBRAP_184_5176 (protein)
# chain: MIEEYELKIENVEEAKKKIKEIGEEVKGKKAELYVLIDVPEVTKEIAKAIMDGLKEIKDNGNVTKITVDLNGKMTEEVLDYAIKLAKEAGVNLVVALDEE
# B4: GBRAP_52_6361 (protein)
# chain: ALEEALALLREALEAVKAGKEEEARAILKELVERFSDEVILAAARRLAEELKDKDAESAEAFLELALMLEDELLEAGRDEVVADEIAAIAARTYMEVLAK
# B5: GBRAP_52_6356 (protein)
# chain: MKEELEKKAEELVKAVLEGKEEEARKLAKEIVEELSDEELDELFKVLAERARESDPETAEAIVEAAIILSDELIKAGRDEYEASLREADVAGAAYENLQA
# B6: GBRAP_74_6530 (protein)
# chain: DEEVLKKIEEAAEAGDLEKAIEIAEEAVDKLSPENLVKALLIVLELFEERREEATPEELDRVVDLIVRVESKVDDLDFPDELLELIARALALAVEREEAE
# B7: GBRAP_160_4601 (protein)
# chain: MEEVEKLLKEIREIIEEAIKLIEGESPENRLVIIEVAMGEILLEIDSSEIVSEELEEFADEELDAVVDWVRANPEASVEEIRKLLEEAFEKIEKALKEEH
# B8: GBRAP_52_5852 (protein)
# chain: MREEARKIAQELVKLQLAGDEEGLEKKLKEIVETKSEEEILLILDELAELAKTASPEEVDAIVDVAIKLSDIAEEAGFDEWELSAAEARVGKAAYENLQK
# B9: GBRAP_160_4782 (protein)
# chain: AEKKAKLKAAIDAAAAEIREAIDTESPAQVLTVARGEMGDILQEAEELGFDNDELLDALAAAGDELVAALAAAADASPAEKRAVVDAARAKMIATLDKLT
# B10: GBRAP_122_2954 (protein)
# chain: NSEERVERLVEETVERAKKENPAEVFFEAIKRAAEELSPEDVIRFAELLAERAKELGWEAEAAKAFAAAAVWLEKEKPELAEAADHLADLADELFDRLME
# B11: GBRAP_52_5962 (protein)
# chain: MREEMEALLDEALALMRAGDREGARALLREIARTLNDEELRLLADVLVERIEASDLETAELLLEIAILLADVLEEEGRDPRIASDLLGRAAAAAYKLEQK
# B12: GBRAP_128_3390 (protein)
# chain: SQEEKVEEAKELIDKIIEADVEEAKKLAEEFMKLFGELSKEDQEIVAEYFESKLPEMTAEKLEVVADVIREKRPELDPYGQELAAGMEVEALNEAEEKEE
# B13: GBRAP_80_6864 (protein)
# chain: MEEAIEEALKLAEEVSEEIAELFRELIEELKKLGVSEEDIKRIAEIIKDIIELDPELALEALKEMVEEAKKYLKEGKGEEALVVVEGIAGEALMEAEEKQ
# B14: GBRAP_11_2928 (protein)
# chain: KKEEIKRIAELAEKLAEAIDRLIAEGTDDEELRAEATRLLEELTKLVEKYGDEADRKDAEIMRELWEKALADPENAEQYLTELRNEALVLSGNYLLEYDE
# B15: GBRAP_14_3778 (protein)
# chain: MEEIERILREEAAEIIELLSELAPAKAAEFEAAVTEVTEETIARIKETGDVHAAVDEGEERLVARIDEILADEPPEVRARALAIVRVEMGNALLEIDELL
# B16: GBRAP_52_5959 (protein)
# chain: MEERMRRLVEEALELARAGREEELDALLREIAETLNEEELELLAEEMARRVEESDLETAEILLDIAIRLGDVLIEEGRDEGIASYIEARVAAAAYKLEQK
# B17: GBRAP_160_4270 (protein)
# chain: SPELEELIEDLEEDRDEILEDVDRISPEEVRVEAVTELGSHLMEAVDLGLVTDEQEDELAEIIDELEAELAAAADASPEEIKAIIERHYDEAIELLKKAK
# B18: GBRAP_95_7050 (protein)
# chain: DDDQLALESTFEVLETYLDLGDKENAERAAEEAVKLLKELGYDAVPDDISLEAGKLLIKVAAKTESKEDVLKLTEALKAKAKTEEDKKELEKVAEEALAA
# B19: GBRAP_160_4096 (protein)
# chain: SEKVEELIKEIEELEEETKKMIEGENIEQRATILRGFGGDVLMLLFESGIAPEEVEDFADEKFDELVETVEANPDLTLEEIKELLEEVVEEVKEKIKELG
# Biological target: GABARAP, O95166
# Sequence (O95166 whole entry, the tested form may be a part): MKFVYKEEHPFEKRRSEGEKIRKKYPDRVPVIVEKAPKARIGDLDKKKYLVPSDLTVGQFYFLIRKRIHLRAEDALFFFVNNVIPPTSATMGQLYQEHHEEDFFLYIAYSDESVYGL
# Test: median log2 fold change of GCK-ALFA target abundance (FLAG IP / Myc IP barcode read proportion) (log2 ratio); each designed protein is fused to an ALFA-tag nanobody in HEK293 cells to bring the named protein to FLAG-tagged glucokinase (GCK); Myc marks an untargeted standard; higher = target protein stabilised (more abundant)
# Details: target protein: 3xFLAG-MCP-GCK-ALFA reporter; HEK293 landing pad (RPLP)
# In short: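 The readout is target abundance, the per-binder median log2 ratio of FLAG to Myc barcode read proportions. It came from HEK293 landing-pad cells carrying a recombined ALFA-nanobody-fused binder library, induced with 2 μg mL^−1 doxycycline and transfected with a plasmid for a FLAG-tagged target and a Myc-tagged standard. After 48 h, lysates were immunoprecipitated with anti-FLAG and anti-Myc, and circular RNA barcodes were reverse transcribed, amplified and sequenced. Each barcode needed a proportion of at least 10^−7 in both replicates and each binder at least 3 barcodes per replicate, a pseudocount of 10^−6 was added, and the replicates were pooled.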
row,Binder,median log2 fold change
1,B1,-0.0144
2,B2,-0.163
3,B3,-0.0925
4,B4,-0.179
5,B5,0.0654
6,B6,-0.0476
7,B7,-0.451
8,B8,-0.359
9,B9,0.219
10,B10,0.157
11,B11,-0.585
12,B12,0.262
13,B13,0.127
14,B14,0.126
15,B15,0.104
16,B16,-0.532
17,B17,-0.168
18,B18,0.292
19,B19,0.0128

# — the supplement of paper PMC12632987
